Results from the RNAGym collection of RNA variant scans (doi:10.7554/elife.90254).
The source gives no read counts; variants with many changes may rest on few reads.

B1: LINE1-mini (parent)
chain: GGCAGAGCUCAACACAGCGUGGCAAAGUGGCUGUGGCUAGACUGCC

Variants of: B1
Assay: self-cleavage, relative activity (ratio to wild type); higher = more cleavage; in vitro, sequencing; the parent is a self-cleaving ribozyme
G7U C8A A14U showed a self-cleavage of 0.11.
C3G A6C C8G C13A C42U gave a self-cleavage of 0.01.
G2A C3A A11G G35U gave a self-cleavage of 0.28.
Variant G17A U20A G22A A26G G33U has a self-cleavage of 0.03.
For A16C G30A C37G, the self-cleavage was 0.01.
Work on U9C C10U A11C A26U G27U yielded a self-cleavage of 0.02.
Work on C15A G19C G35U yielded a self-cleavage of 0.03.
C10A U28G G30U C31A G35U G36A G40C C45A showed a self-cleavage of 0.01.
In the case of A11U G17U G19A C23A C31G, the self-cleavage is reported as 0.01.
With G2U A24C A25U U28G G30U the self-cleavage was 0.03.
With C8U G19U U38C C46U the self-cleavage was 0.1.
A6G A12U C46G gave a self-cleavage of 0.13.
Variant G5A U20C G35C A39G has a self-cleavage of 0.02.
Work on G21A A26G U32C G33A yielded a self-cleavage of 0.02.
In the case of G1A G22C C42G, the self-cleavage is reported as 0.09.
C8G C15U G29A C46A showed a self-cleavage of 0.05.
For C3A A24G G29A C31A U32C, the self-cleavage was 0.13.
With G19A A26G G29U the self-cleavage was 1.88.
With U9A G22A C31U C37G the self-cleavage was 0.03.
In the case of C3U C13G A25U U38G, the self-cleavage is reported as 0.
In the case of G1C A4C G7A G27A, the self-cleavage is reported as 0.01.
Variant A11U G30A C45U has a self-cleavage of 0.38.
Work on C3A G5C G7C G17A C18A A24C C37A yielded a self-cleavage of 0.03.
For A6C A11C C18A G40A, the self-cleavage was 0.03.
A4C G5A C10G C13U G30A gave a self-cleavage of 0.01.
Variant A6G C8G C46U has a self-cleavage of 0.19.
Work on C3A A24U A25U C45A yielded a self-cleavage of 0.23.
In the case of A12U G17A G22C A24G C37A, the self-cleavage is reported as 0.02.
In the case of A6G C10A A14C G30U, the self-cleavage is reported as 0.02.
For A4U G5C C31A U32G A39C G44U, the self-cleavage was 0.02.
Variant G17U A25C U34A U38A A41U has a self-cleavage of 0.02.
G7U C10G G17C gave a self-cleavage of 0.01.
G2C A6C G7A G30A gave a self-cleavage of 0.48.
With G17U G22U G27U G30A U38C the self-cleavage was 0.83.
Work on C13A A14C A16G C23A U28G yielded a self-cleavage of 0.05.
Work on G5U C13U A14C yielded a self-cleavage of 0.01.
G36C A39G A41G showed a self-cleavage of 0.01.
With C15A G22U G44C C45U the self-cleavage was 0.09.
With A6C C10A A25C the self-cleavage was 0.02.
In the case of G2C G5U A39U C46A, the self-cleavage is reported as 0.02.
For C15U A25G C45A, the self-cleavage was 0.07.
A4U G19A U38A gave a self-cleavage of 0.05.
Work on A4C G17C A24C G29A U34G yielded a self-cleavage of 0.11.
With G5A A25U C31A A39U the self-cleavage was 0.03.
With C8A A16U A26G C31G U38A the self-cleavage was 0.02.
U20A G36U C37U A39C showed a self-cleavage of 0.02.
G19U G29C C37G gave a self-cleavage of 0.02.
Work on G5C C18U G22U G30A yielded a self-cleavage of 0.11.
Work on G1U C8G U32G G35A G40A yielded a self-cleavage of 0.01.
C3U C15G A24G C31G gave a self-cleavage of 0.06.
A12U U32A U34A gave a self-cleavage of 0.02.
Work on G1U C8A U9G A11C C15A C46A yielded a self-cleavage of 0.01.
A6U C42U G44U gave a self-cleavage of 0.34.
A6C A26U G36A C45A gave a self-cleavage of 0.11.
In the case of A4G C13U C37U, the self-cleavage is reported as 0.25.
Work on C15G U20C U28C G30A yielded a self-cleavage of 0.01.
A6G G19U U38C gave a self-cleavage of 0.06.
A11U G21A U34G showed a self-cleavage of 0.01.
Work on G5U A6U A41C yielded a self-cleavage of 0.15.
A14U U20A C37U showed a self-cleavage of 0.01.
G1U C13A G35U gave a self-cleavage of 0.66.
In the case of C13U A39C C46U, the self-cleavage is reported as 0.22.
A14C G17A U20G G21C gave a self-cleavage of 0.03.
In the case of C8A U9G U28G, the self-cleavage is reported as 0.03.
C8U A11C G17C C46A showed a self-cleavage of 0.
In the case of A14U G21U C23G G30A C37U, the self-cleavage is reported as 0.03.
A11U G17A G35A A41C C42A U43G gave a self-cleavage of 0.02.
In the case of C3G A14G A25C, the self-cleavage is reported as 0.1.
In the case of G7U A11U G22U A39U C46G, the self-cleavage is reported as 0.01.
With C3G G17A U20G the self-cleavage was 0.07.
C3A G17U G27C U28A C46A gave a self-cleavage of 0.16.
With C18U A25G G35C the self-cleavage was 0.02.
With G5U C15G G21A C23U G35U the self-cleavage was 0.04.
Variant C8A G17C G40C has a self-cleavage of 0.17.
C15U G21C A41G G44C showed a self-cleavage of 0.06.
With G2U G7A C15G C23A C42G G44C the self-cleavage was 0.02.
In the case of A6U U9A C37G, the self-cleavage is reported as 0.02.
In the case of C3A A6C U9A A12C C18A U34A, the self-cleavage is reported as 0.03.
G5C G21U A24C G33U C45G gave a self-cleavage of 0.04.
C10A C15U A26U G33U G36A showed a self-cleavage of 0.03.
Variant G5C G21A C42U has a self-cleavage of 0.06.
For G1U A4U A12U C45A, the self-cleavage was 0.01.
With A12G C13G C18U G30A G36A the self-cleavage was 0.03.
With G5C G21C A25G G36A G44U the self-cleavage was 0.04.
Work on G2C C15G U28C yielded a self-cleavage of 0.
In the case of G7U U9C A12C U28C G33U C37A, the self-cleavage is reported as 0.01.
Work on C3U C15A G35U C42U yielded a self-cleavage of 0.11.
For A6C G7C A24G, the self-cleavage was 0.06.
With C10A C13A U34C G40C the self-cleavage was 0.
In the case of U28C G29U A41C, the self-cleavage is reported as 0.03.
Work on G1U G5A C18A U28C G29A G30C yielded a self-cleavage of 0.
U20C A25U G33U gave a self-cleavage of 0.4.
C10A C18A U32A G44U showed a self-cleavage of 0.01.
C18U C23U C45A gave a self-cleavage of 0.55.
With G2U C13U G33U A39C G40A the self-cleavage was 0.02.
For C8U A39C U43C C46A, the self-cleavage was 0.15.
With U9G A14C C18A G36C the self-cleavage was 0.02.
A11U A12G C37A showed a self-cleavage of 0.03.
Work on G2C C8U U34C G44A C45U yielded a self-cleavage of 0.31.
With G2A U9C A16G G21A G30A the self-cleavage was 0.03.
With A12C C15G U20A G27U U38A the self-cleavage was 0.
C3A G21U G30C gave a self-cleavage of 2.43.
Variant A16G G36U G40C has a self-cleavage of 0.03.
G5A A14U A16U C18A G19A C42U showed a self-cleavage of 0.04.
Work on G19U G35A A39C yielded a self-cleavage of 0.04.
Work on G7U C18U G21A yielded a self-cleavage of 0.1.
For C8U C10G G17C G40A, the self-cleavage was 0.06.
In the case of G1A G2A C8A A16U G35C, the self-cleavage is reported as 0.25.
With C10G C13U G22U the self-cleavage was 0.02.
Variant A4C A14U G36U has a self-cleavage of 0.06.
In the case of G5A A12G G17A C18G G33C, the self-cleavage is reported as 0.28.
Work on C3A G7A A16U C18A G19A yielded a self-cleavage of 0.2.
Work on U9A A11C C23A yielded a self-cleavage of 0.02.
C8A A14U G21U C37U showed a self-cleavage of 0.03.
In the case of A25G U34G G36U, the self-cleavage is reported as 0.18.
With G2C U34G G40C A41G the self-cleavage was 0.02.
In the case of G2U G21C G33A, the self-cleavage is reported as 0.08.
G19C U28C G44U showed a self-cleavage of 0.25.
C3G C10U G29U C31U C37G showed a self-cleavage of 0.12.
Variant A11C A41U U43A C45A has a self-cleavage of 0.01.
With U9G G21U G36C A39U the self-cleavage was 0.01.
With A14C G17U G21U G27C A39G the self-cleavage was 0.09.
For A12U C15A A26U A39C, the self-cleavage was 0.01.
Work on U9C C18G G21C U32G yielded a self-cleavage of 0.01.
C8A A24G G35U gave a self-cleavage of 0.08.
With G7A C13U A24U A39U the self-cleavage was 0.08.
Work on G2A C10A C23G G33U G36C yielded a self-cleavage of 0.04.
With A25C G33A U38C C45A the self-cleavage was 0.03.
A14G C18U U28G showed a self-cleavage of 0.04.
Variant G2A A4U G22U has a self-cleavage of 0.39.
Variant G1A C31U A39C has a self-cleavage of 0.01.
Work on G5C U9A G19A G29C G35U yielded a self-cleavage of 0.04.
G1A G19A U28A G35A A39C showed a self-cleavage of 0.06.
Work on U9A A11C U28G G35A yielded a self-cleavage of 0.02.
C8G U9C A12G U20C gave a self-cleavage of 0.01.
For C18U U20A C42U, the self-cleavage was 0.1.
For G2A G33U G40A, the self-cleavage was 0.06.
For A11U G35A G40A, the self-cleavage was 0.03.
For C13A U20A G29U C46U, the self-cleavage was 0.08.
With G30A C31G C37A the self-cleavage was 0.03.
G2A U9C C31A gave a self-cleavage of 0.02.
With G1U A11C C23U U28C U32A the self-cleavage was 0.02.
For G7A C15G A26U, the self-cleavage was 0.42.
G5A G21U G40U showed a self-cleavage of 0.12.
With G5A C10A U38G the self-cleavage was 0.03.
With G36U C42A U43G C45A the self-cleavage was 0.02.
In the case of U9G C13A C23U A26U G36C, the self-cleavage is reported as 0.02.
Variant C13U G17U U20A U32C G44U has a self-cleavage of 0.04.
Work on C23A G27U G36A C42A yielded a self-cleavage of 0.13.
G2U A4C C8A G17A gave a self-cleavage of 0.09.
A24U G29C U43G C45G gave a self-cleavage of 0.14.
C10A A24C U28G G29U gave a self-cleavage of 0.06.
For A4U A16G U20A C37A, the self-cleavage was 0.02.
Work on C8G G17A G22C G36U yielded a self-cleavage of 0.15.
G1C A14G C23U showed a self-cleavage of 0.02.
C13U G22A U34G G36C gave a self-cleavage of 0.09.
For A11C G21C C46G, the self-cleavage was 0.1.
With G19U A41C U43G the self-cleavage was 0.01.
C3G A14G A25U G27C G36U showed a self-cleavage of 0.48.
A14C G22U C37A U43C gave a self-cleavage of 0.03.
Variant A16C U20A A25G G36C A41U has a self-cleavage of 0.02.
G2A U20G C46A showed a self-cleavage of 0.27.
With A4U G5A A24U A25G G36U C46A the self-cleavage was 0.04.
C8U U9C C23G U32A G35U U43C gave a self-cleavage of 0.03.
G21A C23G U38G gave a self-cleavage of 0.01.
Variant G2C A26C G36A has a self-cleavage of 0.08.
With G21C U28A C37A the self-cleavage was 0.03.
